This is an account of results in the supplement of paper PMC12632987.

Whole data set: some 2,300 sequences, median “median log2 fold change of GCK-ALFA target abundance (FLAG IP / Myc IP barcode read proportion)” near 0.095, cut for the lowest 2% near -0.47. The list shows a part of the results.

B1: LC3A_free_46_2368 (protein)
chain: PRAEIDIDFLVETKEKAEKLAKELTAAIKAIAAEHGVKVEIKVEITKNPDGTYALKINITLEADDLETLQAAVNAIIDAIDKIAEEFNVSYIISVEIIDE
B2: LC3A_28_959 (protein)
chain: SALDKELEATLAAAKAAAAAGKAEVFTINVPGTANEEDIEKVIKALKEIAEILKDVKGSAIIINVDAGVKQEHIDKLADAAEEIEKKYPNITVIIALDEE
B3: LC3A_3_1721 (protein)
chain: MEEIRERALAVLREKGASPETIAAVAALLDALAERGFEEAAETLLEKLEELEGVSSEDLLAALQDLLHLVTEEDLSEEEVIAAIEEEFRVLKEALEIEEL
B4: LC3A_28_929 (protein)
chain: MTKEEIIKHIEEVAKEAIEKGEDAFIEIEIGSETTVEEAKEIMDKLEEEAKKLSEAGLKVSVLIDLDNVSQEVLDTVLDKADEINEKYPLVNVIIALDEE
B5: LC3A_17_597 (protein)
chain: MEELKEELEKLLKEAEALIEELKKLDPSAYPELKKKLEEAKKLIKEGKLKEAAEKLEELAREMADIFEELEEKGVEEAAPLYMEAGGIEVEATRLLLKLD
B6: LC3A_free_39_2254 (protein)
chain: AAAEVAAILAELRAAAAQASPAVRAAVLALAERLADNPELLRALLELLREALAKGPEAVERLGAWAAEAVARIDAGEDPEAVARELLRLGRADVEIEEID
B7: LC3A_3_1851 (protein)
chain: MEEIIEEIKKLLESLGRSEETIEAAMELAELLAERGYKEALEKLLEELKKLKDLPDEILLAMFEDILRALKTEDLSEEEAIELIEEEAEIARNEAEIEEL
B8: LC3A_free_39_2264 (protein)
chain: SEEEIKKAEEEVRKLAAKTDPETKEAILRLTEYIKDNAEKLKKLAELLERAIEKGPEAVRILGEFAKEAVERIDAGEPVEEAFEELIKLSEAAIEIEEID
B9: LC3A_28_698 (protein)
chain: SRVDEDIERARKIAEEAIAKGEDALIELTIRPDTTAEDVDRILATIRELAEKMSKTGKLYVVVDVESGVDQANIDRIADELDKLMEEIPNLTAVIALDED
B10: LC3A_28_780 (protein)
chain: NMLEENIKKALEEAKKAAEKGEEVTLEITIPATATQEDIDKVIEALEEIAELSKNMKSVDVVIDVEAGVDQEYITKIAEKGDELSAKNPKVTVVIALEEE
B11: LC3A_28_1328 (protein)
chain: SHIEEELAKARKAAEEALAKGEEALIEVNVTGSTTLEEAEELMEKLKEIAKKYAPKIKVSIVINLSSSVSQEVEDLIAEKAEEIEEELPNVTVIIALDED
B12: LC3A_128_234 (protein)
chain: EEKRKLILKILEEARKLAEELSKSEVGKELFEKLIKELDKAIKLLKEGGPLEEVLKELTKADEIADKIIKETDHDRLKLNELSLLIGEAIALVQDMIADE
B13: LC3A_127_176 (protein)
chain: ELRELLEKLLEVAEKLSEELSKPDYDEEEIEKLIEEAKRLAKEALKLDPRAQPVLDAAEDIEKEFEKLKKAPEEEKEEIKEHMAMLAESLIIEVLSLLLR
B14: LC3A_45_1960 (protein)
chain: MAEAEVYVLVPEEEFDKVVEIIKEEIERINKERGLEASIDEEELKKAREEAKKEGEALVKVTIRSEDMQAALDAADEISDEVEKKSSPKVATIIAYREEP
B15: LC3A_free_46_2331 (protein)
chain: VKLEIDVDLLHDDRAAMEAAVADIEAAAKEIAAKYGAEVKIDVTISQDPDGSWFAEIRITVTAPTLETAKAIETDLIDAIEEIADAHGIASIISSEIEEL
B16: LC3A_28_910 (protein)
chain: SAVEAAVAAAIAEAEAAAARGEPAVVTLRIDHADVEEARAAARAALTRLKEVALKLKGVTIIVDVPEHAADAVTAVADEVQAELLKKNPSNHIIVAVEEP
B17: LC3A_45_1927 (protein)
chain: MYKATVDLLVPKELAEEAYKLIKEKLEELQKKYGPELKVDWETLEKSYEASKDEEEVYFEVKIYHPDKQTALDSAVELEDALQKAFGGKIASIISIEEVP
B18: LC3A_28_744 (protein)
chain: MSIEEEIERAIAQAREAAAAGESAVITITVPGTANEEDIEKVIEALYEIAEILKDVPDQAIIVDIDGKLDPKLQQKLMDAGDEIEKKYPNVTVIFALDEE
B19: LC3A_45_1957 (protein)
chain: MYEAVVLALVPEELFDEAVAVLRETSERLSKERGVEVTIDEEALEEARKEAEENGEALLEVTVRSEDKDEALDAASEISDALEAALPDRVATVIAYKEVP
B20: LC3A_3_1784 (protein)
chain: MEEKKEELLKKLKEAGHSEETIKAAEEVLKLLIEKGYEEAFETFIEEMEELIDLPDEILLDMLKEALELLKTNDLSEEEVKEKIKELAELARNEGEIIEL
B21: LC3A_147_465 (protein)
chain: KKYEVVLDVLVKDLTPELLKDFEELAEEIKEKFPDAEVELKVETDPEDPSLTLVTLTVTVDTEEDAEKILDFLDEKEEELEKKYSDQILASMISKQEVEP
B22: LC3A_free_46_2435 (protein)
chain: VVVEIDVSLLHEDKATLEAAVKELVEKAKEIAKKYGGKLEIKVEFSVDEDGNHFADIDITVEVETKEKAEQIANDLIDAIDEIAEKYGVSAIISVEIIEK
B23: LC3A_28_1171 (protein)
chain: SETEKNAEAALKEAKEAKEKGEPAVITITLPSGATQEEVDLVIKTMEEIAELLKDIKGSAIIVDVSSGVPQEHLDLIMDKADEIEEKYPNVSVIIALDED
B24: LC3A_17_576 (protein)
chain: SEEIKKLYEEALKVVEEAAKLAEKLDKEAAKKVKEILEEIKKAYKELSDLEIAKTIAEQMDKVADILDSLEDKDPEATGHLSMEADGVSIEAESLALKLE
B25: LC3A_28_893 (protein)
chain: SAAIKQAEAALAEAEAALAAGSTEPLVLEVKAPSTEEDAEKFLKLLEKIAEVGDKKPGVSIVIDVDSSVSQEIIDKIIDKAEELEKKYPNVTIIIALPED
B26: LC3A_3_1355 (protein)
chain: SEEHIAAQVARLAAAGFSPEVLEAARAAFEALAAQGHQEGIDRLTDALLANKDAPDEKLLRALANLLAELQANPNLTQEEVDALIKLVENDLEIEELEEE
B27: LC3A_free_46_2292 (protein)
chain: YKVEIDVDIGGLTEEQAKEFVKELKEKLKEIAKKYGVEIEVETEIEKNEDGTYSVKVNITIKAETKEIAEKVKDEVIDAIDELAEKYNASYIISYEIKEL
B28: LC3A_3_1462 (protein)
chain: AQELIEEARKILEEQGWSPETIAAAEALLKALAAKGYENAMKTVVELLKEMKGVSSEILLDTFKELLAIVETEDLSEEEVIKKIKEEFAAAKSENEIIEL
B29: LC3A_147_414 (protein)
chain: TVVEIDILVKSKEAVEKIKERMKEIVKELKAKGYKVKLEIKVEEVEPGVYLVDITIEIEAETKEDAEAAANFVLDKIDEMEEELKDEILGSLISVEIEEK

The target in this assay is MAP1LC3A, Q9H492. The experiment in a line: median log2 fold change of GCK-ALFA target abundance (FLAG IP / Myc IP barcode read proportion) (log2 ratio); each designed protein is fused to an ALFA-tag nanobody in HEK293 cells to bring the named protein to FLAG-tagged glucokinase (GCK); Myc marks an untargeted standard; higher = target protein stabilised (more abundant). The following applies: target protein: 3xFLAG-MCP-GCK-ALFA reporter; HEK293 landing pad (RPLP). The gist of the method: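 An ALFA-nanobody-fused binder library was recombined into HEK293 landing-pad cells and induced with 2 μg mL^−1 doxycycline. Cells were transfected with a plasmid expressing a FLAG-tagged target and a Myc-tagged standard. After 48 h, lysates underwent anti-FLAG and anti-Myc immunoprecipitation, and circular RNA barcodes were reverse transcribed, amplified and sequenced. Target abundance is the per-binder median log2 ratio of FLAG to Myc barcode read proportions. Barcodes needed ≥10^−7 proportion in both replicates, binders ≥3 barcodes per replicate, and a 10^−6 pseudocount was added; the two replicates were pooled.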
With B1, the “median log2 fold change” value is -0.0223. The figure for B2 is 0.0876; for B3 it is 0.169; for B4 it is -0.171. Next, B5: 0.249.

Consider B6, for which the “median log2 fold change” value stood at 0.3.

In the case of B7, the “median log2 fold change” value came out at 0.179. The figure for B8 is 0.246. Next, B9: -0.304; B10: 0.143; B11: 0.198.

In the case of B12, the “median log2 fold change” value was 0.149. On to B13, for which the “median log2 fold change” value was -0.13. For the molecule B14, the “median log2 fold change” value turned out to be 0.0892.

With B15, the “median log2 fold change” value was -0.0171.

As for B16, the “median log2 fold change” value is -0.0883. B17: the “median log2 fold change” value was 0.0631. Turning to B18, the “median log2 fold change” value came out at 0.0682.

For the molecule B19, the “median log2 fold change” value turned out to be 0.0666. Next, B20: 0.404. Next, B21: -0.192; B22: -0.134; B23: -0.334.

On to B24, for which the “median log2 fold change” value was -0.013. As for B25, the “median log2 fold change” value was -0.431.

As for B26, the “median log2 fold change” value amounted to 0.307.

For B27, the “median log2 fold change” value was 0.127. Next, B28: 0.153. The figure for B29 is -0.515.
